Experimental findings from the supplement of paper PMC8728848 are described below.

The list shows a part of the results.

Assay in all cases: glycan array binding signal (z-score within array); higher = stronger binding
Common to all, as to conditions: glycan notation: IUPAC condensed, linker removed

Assay [1] deals with Gal(b1-4)GlcNAc(b1-3)Gal(b1-4)GlcNAc(b1-3)Gal(b1-4)GlcNAc(b1-2)Man(a1-3)[Gal(b1-4)GlcNAc(b1-3)Gal(b1-4)GlcNAc(b1-3)Gal(b1-4)GlcNAc(b1-2)Man(a1-6)]Man(b1-4)GlcNAc(b1-4)GlcNAc. The method in brief:
(§1)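 Glycan array data came from 3228 arrays in the Consortium for Functional Glycomics database, and only arrays with an available protein sequence were kept. Glycan names were put into IUPAC-condensed notation, and columns mapping to the same glycan were averaged. The binding signal is a within-array Z-score, averaged across arrays of one protein sequence run at different concentrations or buffers and across linkers. A negative Z-score can be read as non-binding.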

For assay [2], the target named is Gal(b1-4)GlcNAc(b1-3)Gal(b1-4)GlcNAc(b1-3)Gal(b1-4)GlcNAc(b1-2)Man(a1-3)[Gal(b1-4)GlcNAc(b1-3)Gal(b1-4)GlcNAc(b1-3)Gal(b1-4)GlcNAc(b1-2)Man(a1-6)]Man(b1-4)GlcNAc(b1-4)[Fuc(a1-6)]GlcNAc. The gist of the method:
as §1

Assay [3] has as its target Gal(b1-4)GlcNAc(b1-3)Gal(b1-4)GlcNAc(b1-3)Gal(b1-4)GlcNAc(b1-2)[Gal(b1-4)GlcNAc(b1-3)Gal(b1-4)GlcNAc(b1-3)Gal(b1-4)GlcNAc(b1-6)]Man(a1-6)[Gal(b1-4)GlcNAc(b1-3)Gal(b1-4)GlcNAc(b1-3)Gal(b1-4)GlcNAc(b1-2)Man(a1-3)]Man(b1-4)GlcNAc(b1-4)[Fuc(a1-6)]GlcNAc. The gist of the method:
as §1

In assay [4] the target is Gal(b1-4)GlcNAc(b1-3)Gal(b1-4)GlcNAc(b1-3)Gal(b1-4)GlcNAc(b1-3)Gal(b1-4)GlcNAc(b1-2)Man(a1-3)[Gal(b1-4)GlcNAc(b1-3)Gal(b1-4)GlcNAc(b1-3)Gal(b1-4)GlcNAc(b1-3)Gal(b1-4)GlcNAc(b1-2)Man(a1-6)]Man(b1-4)GlcNAc(b1-4)GlcNAc. The gist of the method: as §1
Assay [5] addresses Gal(b1-4)GlcNAc(b1-3)Gal(b1-4)GlcNAc(b1-3)Gal(b1-4)GlcNAc(b1-3)Gal(b1-4)GlcNAc(b1-2)Man(a1-3)[Gal(b1-4)GlcNAc(b1-3)Gal(b1-4)GlcNAc(b1-3)Gal(b1-4)GlcNAc(b1-3)Gal(b1-4)GlcNAc(b1-2)Man(a1-6)]Man(b1-4)GlcNAc(b1-4)[Fuc(a1-6)]GlcNAc. The gist of the method: as §1
The target in assay [6] is Gal(b1-4)GlcNAc(b1-3)Gal(b1-4)GlcNAc(b1-3)Gal(b1-4)GlcNAc(b1-3)Gal(b1-4)GlcNAc(b1-2)[Gal(b1-4)GlcNAc(b1-3)Gal(b1-4)GlcNAc(b1-3)Gal(b1-4)GlcNAc(b1-3)Gal(b1-4)GlcNAc(b1-6)]Man(a1-6)[Gal(b1-4)GlcNAc(b1-3)Gal(b1-4)GlcNAc(b1-3)Gal(b1-4)GlcNAc(b1-3)Gal(b1-4)GlcNAc(b1-2)Man(a1-3)]Man(b1-4)GlcNAc(b1-4)[Fuc(a1-6)]GlcNAc. The method in brief:
as §1

The target in assay [7] is Gal(b1-4)GlcNAc(b1-3)Gal(b1-4)GlcNAc(b1-3)Gal(b1-4)GlcNAc(b1-3)Gal(b1-4)GlcNAc(b1-3)Gal(b1-4)GlcNAc(b1-2)Man(a1-3)[Gal(b1-4)GlcNAc(b1-3)Gal(b1-4)GlcNAc(b1-3)Gal(b1-4)GlcNAc(b1-3)Gal(b1-4)GlcNAc(b1-3)Gal(b1-4)GlcNAc(b1-2)Man(a1-6)]Man(b1-4)GlcNAc(b1-4)GlcNAc. The method in brief:
as §1

The target in assay [8] is Gal(b1-4)GlcNAc(b1-3)Gal(b1-4)GlcNAc(b1-3)Gal(b1-4)GlcNAc(b1-3)Gal(b1-4)GlcNAc(b1-3)Gal(b1-4)GlcNAc(b1-2)Man(a1-3)[Gal(b1-4)GlcNAc(b1-3)Gal(b1-4)GlcNAc(b1-3)Gal(b1-4)GlcNAc(b1-3)Gal(b1-4)GlcNAc(b1-3)Gal(b1-4)GlcNAc(b1-2)Man(a1-6)]Man(b1-4)GlcNAc(b1-4)[Fuc(a1-6)]GlcNAc. The gist of the method:
as §1

Assay [9] concerns the target Gal(b1-4)GlcNAc(b1-3)Gal(b1-4)GlcNAc(b1-3)Gal(b1-4)GlcNAc(b1-3)Gal(b1-4)GlcNAc(b1-3)Gal(b1-4)GlcNAc(b1-2)[Gal(b1-4)GlcNAc(b1-3)Gal(b1-4)GlcNAc(b1-3)Gal(b1-4)GlcNAc(b1-3)Gal(b1-4)GlcNAc(b1-3)Gal(b1-4)GlcNAc(b1-6)]Man(a1-6)[Gal(b1-4)GlcNAc(b1-3)Gal(b1-4)GlcNAc(b1-3)Gal(b1-4)GlcNAc(b1-3)Gal(b1-4)GlcNAc(b1-3)Gal(b1-4)GlcNAc(b1-2)Man(a1-3)]Man(b1-4)GlcNAc(b1-4)[Fuc(a1-6)]GlcNAc. The method in brief: as §1

The target of assay [10] is Gal(b1-4)GlcNAc(b1-3)Gal(b1-4)GlcNAc(b1-3)Gal(b1-4)GlcNAc(b1-3)Gal(b1-4)GlcNAc(b1-3)Gal(b1-4)GlcNAc(b1-3)Gal(b1-4)GlcNAc(b1-2)Man(a1-3)[Gal(b1-4)GlcNAc(b1-3)Gal(b1-4)GlcNAc(b1-3)Gal(b1-4)GlcNAc(b1-3)Gal(b1-4)GlcNAc(b1-3)Gal(b1-4)GlcNAc(b1-3)Gal(b1-4)GlcNAc(b1-2)Man(a1-6)]Man(b1-4)GlcNAc(b1-4)GlcNAc. The gist of the method: as §1
Assay [11] addresses Gal(b1-4)GlcNAc(b1-3)Gal(b1-4)GlcNAc(b1-3)GalNAc. The method in brief: as §1
Assay [12] addresses Gal(b1-4)GlcNAc(b1-3)Gal(b1-4)GlcNAc(b1-3)[Gal(b1-4)GlcNAc(b1-3)Gal(b1-4)GlcNAc(b1-6)]GalNAc. The gist of the method: as §1
For assay [13], the target named is Gal(b1-4)GlcNAc(b1-3)Gal(b1-4)GlcNAc(b1-6)[Gal(b1-3)]GalNAc. The gist of the method:
as §1

For assay [14], the target named is Gal(b1-4)GlcNAc(b1-3)Gal(b1-4)[Fuc(a1-3)]GlcNAc(b1-3)Gal(b1-4)[Fuc(a1-3)]GlcNAc. The method in brief: as §1
Assay [15] concerns the target Gal(b1-4)GlcNAc(b1-3)GalNAc. The method in brief: as §1
In assay [16] the target is Gal(b1-4)GlcNAc(b1-3)[Fuc(a1-3)GlcNAc(b1-6)]Gal(b1-4)Glc. The gist of the method:
as §1

Assay [17] addresses Gal(b1-4)GlcNAc(b1-3)[Gal(b1-4)GlcNAc(b1-6)]Gal(b1-4)GlcNAc. The gist of the method: as §1
In assay [18] the target is Gal(b1-4)GlcNAc(b1-3)[GlcNAc(b1-6)]Gal(b1-4)GlcNAc. The gist of the method: as §1
Assay [19] concerns the target Gal(b1-4)GlcNAc(b1-6)Gal(b1-4)GlcNAc. The gist of the method: as §1

B1: Clec49 (Caenorhabditis elegans) (protein)
chain: MTRLTLLLFGLLGAATAQTCNTGGIYNEQFNRCYQYFTAPAQFSFAEQQCNLLGGHLASVQNGQENALLQSNAANSFKRSNYSDYWIGATDLETSGTWKWTDPSVTFDYSNWQLGEPQSGSDCAIQDKGDGTWSAIGCTSYRPYVCVTPVIMTATCPPITTPIPTTCPTPAPCPIKQCVPSCDQGWTYFSPTDFCYRVYHGEKFNDAEASCVLLGGHLASIHSLTENTFVNNIASCGIKEGKYEHLAWIGMRKVGQDWVWTDGTPSDYFNWAPKQPDNPKKELCVQTAPDLSHDKWYENWNNLECNEVMRAYICKKASIHN
Consider B1, for which the “glycan array binding signal (z-score)” value in assay [1] was 2.57; in assay [2] it was -0.058; in assay [3] it was 0.547; in assay [4], -0.294; in [5], 0.849; in assay [6], 0.328. In addition, the “glycan array binding signal (z-score)” value was 0.133 in assay [7]; -0.115 in assay [8]; 0.068 in assay [9]; 0.6 in assay [10]; 1.52 in assay [11]; 0.255 in assay [12]. Besides, the “glycan array binding signal (z-score)” value in [13] is -0.331; in assay [14], -0.058; in [15] it was -0.045; in assay [16], -0.223; in assay [17] it was -0.404; in [18] it was -0.662. Further, the “glycan array binding signal (z-score)” value in assay [19] stood at 0.803.
